Source: PubChem BioAssay AID720709 (National Center for Advancing Translational Sciences (NCATS), 2013)
Among all 360,000 compounds or so, about 520 (0.14%) were called active. The shares of active, inactive and inconclusive entries below differ from those in the screen. The call rests on the fitted dose curve; in most records, active means well fitted inhibition curve with a large enough effect; inconclusive means small, poorly fitted or top-dose-only effect; inactive means no such curve, though single readings can be large or run the other way. Potencies of inconclusive entries are left out as doubtful fits.

Target: Rap guanine nucleotide exchange factor 3 (Homo sapiens) (UniProt O95398)
Chain of UniProt O95398 (O95398 whole entry, looked up): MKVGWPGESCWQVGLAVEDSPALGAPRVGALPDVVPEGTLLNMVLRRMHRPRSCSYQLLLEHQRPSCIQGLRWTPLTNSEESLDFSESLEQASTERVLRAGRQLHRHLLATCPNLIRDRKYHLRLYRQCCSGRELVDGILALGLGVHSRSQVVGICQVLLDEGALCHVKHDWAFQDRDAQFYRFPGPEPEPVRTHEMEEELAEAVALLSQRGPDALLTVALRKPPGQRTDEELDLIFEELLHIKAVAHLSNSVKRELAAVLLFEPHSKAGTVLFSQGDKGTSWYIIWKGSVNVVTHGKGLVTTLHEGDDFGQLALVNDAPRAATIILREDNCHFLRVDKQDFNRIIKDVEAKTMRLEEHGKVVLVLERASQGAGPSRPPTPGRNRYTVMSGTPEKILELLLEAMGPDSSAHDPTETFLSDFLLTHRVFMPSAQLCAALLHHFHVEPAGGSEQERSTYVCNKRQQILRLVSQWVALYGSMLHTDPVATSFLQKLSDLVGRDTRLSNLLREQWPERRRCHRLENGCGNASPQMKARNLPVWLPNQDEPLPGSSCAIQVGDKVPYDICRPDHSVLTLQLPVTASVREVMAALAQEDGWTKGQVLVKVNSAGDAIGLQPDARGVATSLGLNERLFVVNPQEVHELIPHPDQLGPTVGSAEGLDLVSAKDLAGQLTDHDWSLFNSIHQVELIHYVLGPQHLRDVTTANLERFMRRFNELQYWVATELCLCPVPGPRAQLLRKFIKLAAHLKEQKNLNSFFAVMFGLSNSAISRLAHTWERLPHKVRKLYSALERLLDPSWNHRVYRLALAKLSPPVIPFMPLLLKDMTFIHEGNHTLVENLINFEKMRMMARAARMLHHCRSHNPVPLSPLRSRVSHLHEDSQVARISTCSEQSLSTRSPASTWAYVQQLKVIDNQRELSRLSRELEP
Assay: qHTS for Antagonist of cAMP-regulated guanine nucleotide exchange factor 3 (EPAC1): primary screen; further: nearly all actives have a fitted effect of over 50% in size;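 on activity change, negative = inhibition: plate controls were vehicle for no effect and positive control for full effect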
Conditions: EPAC1 GEF assay, Rap1b-BODIPY-GDP exchange fluorescence; activity change, negative = inhibition: at 115 µM (top of the series)
Potency means the concentration at half of the fitted maximal effect; tags describe the fitted curve by direction and shape.

Question: With `CCOC(=O)c1cnc2ccc(OC)cc2c1Nc1ccc(N2CCN(C)CC2)cc1` as the compound, how does the Potency read?
Answer: inconclusive [inhibitor, single point]

Question: `CC(=NNC(=O)c1ccccc1N)c1ccccc1O` was tested. Which Potency did it give?
Answer: inconclusive [inhibitor, full curve]

Question: `O=C(CCc1nc2sc3c(c2c(=O)[nH]1)CCCC3)Nc1cccc(Cl)c1` was tested. Which Potency did it give?
Answer: inconclusive [inhibitor, partial curve]

Question: With `COc1cccc(-n2nnnc2SCC(=O)Nc2ccc3c(c2)OCCO3)c1` as the compound, how does the Potency read?
Answer: inconclusive [inhibitor, single point]

Question: With `COC(=O)c1ccccc1Nc1ccccc1` as the compound, how does the Potency read?
Answer: inactive

Question: For `CCN(Cc1ccccc1)c1ccc(N=Nc2nn(C)c(C)c2[N+](=O)[O-])cc1`, which Potency is on record?
Answer: inconclusive [inhibitor, partial curve]

Question: With `COc1ccc(NS(=O)(=O)/C=C/c2ccc(OC)c(OC)c2)cc1` as the compound, how does the Potency read?
Answer: inconclusive [inhibitor, single point]

Question: Which Potency does the source give for `CC(NCc1cccn1C)c1ccccc1` (stereo not given) here?
Answer: inconclusive [inhibitor, single point]

Question: With `CN(C)c1ccc(-c2nnn(Cc3ccccc3Br)n2)cc1` as the compound, how does the Potency read?
Answer: inactive

Question: With `CCOC(=O)C1CCCN(C(=O)CNC(=O)c2nn(-c3ccc(OC)c(Cl)c3)c(=O)c3ccccc23)C1` (stereo not given) as the compound, how does the Potency read?
Answer: inconclusive [inhibitor, single point]

Question: How did the Potency turn out when `O=C(CSc1nnc(-c2ccccc2)n1Cc1ccco1)Nc1ccc2c(c1)OCCO2` was run?
Answer: inactive

Question: With `O=C(Nc1ccc(Cl)cc1)C(Cl)C(=O)c1ccccc1` (stereo not given) as the compound, how does the Potency read?
Answer: inactive

Question: Which Potency does the source give for `CCc1nc2c(OCc3ccc(F)c(F)c3)cccn2c1N(C)C(=O)c1ccc(OC)cc1` here?
Answer: inactive

Question: For `CSc1ccc(CN(C)Cc2nc3cc(C(F)(F)F)ccc3c(=O)[nH]2)cc1`, which Potency is on record?
Answer: inconclusive [inhibitor, partial curve]

Question: How did the Potency turn out when `CCCCNC(=O)Cn1cnc2ccc(S(=O)(=O)N3CCC(C)CC3)cc2c1=O` was run?
Answer: inconclusive [inhibitor, full curve, poor fit]

Question: `Cc1cc(C(=O)N/N=C(\CCC(=O)O)c2cccs2)c2ccccc2n1` was tested. Which Potency did it give?
Answer: inconclusive [inhibitor, full curve, poor fit]

Question: With `COc1cc(Cl)ccc1NC(=S)N(CCCN1CCOCC1)Cc1cn(C)c2ccccc12` as the compound, how does the Potency read?
Answer: inconclusive [inhibitor, single point]

Question: `Cc1cccc(NS(=O)(=O)c2ccc(C)c(NS(=O)(=O)c3cccs3)c2)c1` was tested. Which Potency did it give?
Answer: inconclusive [inhibitor, partial curve, poor fit]

Question: `N=c1c(S(=O)(=O)c2ccccc2)cc2c(=O)n3ccccc3nc2n1C1CCCCC1` was tested. Which Potency did it give?
Answer: inconclusive [inhibitor, partial curve]

Question: How did the Potency turn out when `O=C(O)c1ccc(S(=O)(=O)c2ccc([N+](=O)[O-])cc2[N+](=O)[O-])cc1` was run?
Answer: inconclusive [inhibitor, single point]

Question: Which Potency does the source give for `O=C(O)c1cc(NN=Nc2cccc([N+](=O)[O-])c2)cc([N+](=O)[O-])c1` here?
Answer: inconclusive [inhibitor, partial curve]

Question: How did the Potency turn out when `O=C(O)/C(=C\c1ccc(-c2ccc(F)cc2)o1)c1ccccc1` was run?
Answer: inconclusive [inhibitor, single point]

Question: With `Cc1cc[n+]2c3c(cccc13)CCC2` as the compound, how does the Potency read?
Answer: inactive

Question: `CCCC(C)Sc1nc2c([nH]1)c(=S)n(C)c(=O)n2C` (stereo not given) was tested. Which Potency did it give?
Answer: inactive

Question: Which Potency does the source give for `Cc1cc(O)c(C(=O)/C=C/c2cccc([N+](=O)[O-])c2)c(=O)o1` here?
Answer: active: 56.2 µM

Question: With `CN(C)c1ccc(NC(=O)C(=O)C2C(=O)Nc3ccccc32)cc1` (stereo not given) as the compound, how does the Potency read?
Answer: inconclusive [inhibitor, full curve, poor fit]

Question: Which Potency does the source give for `O=C(Cn1nnc(-c2ccccc2F)n1)Nc1ccc2c(c1)OCCO2` here?
Answer: inactive

Question: `COC(=O)c1cc(NC(=O)Cc2cccs2)cc(C(=O)OC)c1` was tested. Which Potency did it give?
Answer: inconclusive [inhibitor, single point]

Question: `COc1ccc(S(=O)(=O)NNC(=O)c2cccs2)cc1` was tested. Which Potency did it give?
Answer: inactive

Question: How did the activity change, negative = inhibition turn out when `Clc1nccc(N2CCN(c3ccccc3Cl)CC2)n1` was run?
Answer: inconclusive: -9.47% [inhibitor]

Question: `Cc1ccc(S(=O)(=O)Nc2ccc(Nc3nccn4c(-c5ccc6ccccc6c5)cnc34)cc2)cc1` was tested. Which Potency did it give?
Answer: inactive

Question: `CC(=O)N(c1ccccc1)C1SC(=O)N(c2ccccc2)C1=O` (stereo not given) was tested. Which Potency did it give?
Answer: inactive

Question: For `Cc1cc(C)c2c(=N)c3ccccc3n(CCCCCCCCn3c4ccccc4c(=N)c4c(C)cc(C)nc43)c2n1`, which Potency is on record?
Answer: inconclusive [inhibitor, partial curve, poor fit]

Question: With `O=S(=O)(Nc1ccc(-c2nnc(SCc3ccc(Cl)cc3)o2)cc1)c1ccccc1` as the compound, how does the Potency read?
Answer: inconclusive [inhibitor, single point]

Question: For `Cc1ccc(S(=O)(=O)CC(=O)Nc2nc(-c3ccccc3)cs2)cc1`, which Potency is on record?
Answer: inconclusive [inhibitor, partial curve]

Question: With `CCN1CCc2c(C#N)c(NCc3ccccc3)nc(N(CC)CC)c2C1` as the compound, how does the Potency read?
Answer: inactive

Question: How did the Potency turn out when `CCOc1ccccc1C(=O)N[C@H](C(=O)Nc1nc2c(s1)CCCC2)C(C)C` was run?
Answer: inconclusive [inhibitor, single point]

Question: With `Cc1ccc(OCC(=O)Nc2ccccc2Sc2ccccc2)c([N+](=O)[O-])n1` as the compound, how does the Potency read?
Answer: inconclusive [inhibitor, single point]

Question: Which Potency does the source give for `CC(C(=O)N1CCCc2ccccc21)N1CCN(c2ccccn2)CC1` (stereo not given) here?
Answer: inconclusive [inhibitor, single point]

Question: Which Potency does the source give for `Cc1cnc(NC(=O)/C=C/c2ccc(Br)o2)s1` here?
Answer: inactive

Question: With `COc1ccc(-c2csc3ncnc(Cl)c23)cc1` as the compound, how does the Potency read?
Answer: inconclusive [inhibitor, partial curve]

Question: For `CSc1ccc(C=NNc2ccc(S(=O)(=O)Nc3ccccc3C(=O)O)cc2[N+](=O)[O-])cc1`, which Potency is on record?
Answer: inconclusive [inhibitor, partial curve]

Question: How did the Potency turn out when `O=C(C[C@@H]1C/C=C\CC[C@H](Cc2ccc(F)cc2)C(=O)OC[C@@H]2CCCN2C1=O)N[C@H](CO)Cc1ccccc1` was run?
Answer: inactive

Question: Which Potency does the source give for `Cc1nc(CS(=O)c2ccc(Cl)cc2)cc(NCc2ccc(Cl)cc2Cl)n1` (stereo not given) here?
Answer: inconclusive [inhibitor, full curve, poor fit]

Question: `C=CCNC(=O)c1cc(-c2ccccc2O)on1` was tested. Which activity change, negative = inhibition did it give?
Answer: inconclusive: -13.1% [inhibitor]

Question: With `O=S1(=O)CCOC[C@H](CC2CCCCC2)N1Cc1cccc(C(F)(F)F)c1` as the compound, how does the Potency read?
Answer: inconclusive [inhibitor, full curve, poor fit]

Question: With `O=C(Cn1c(C(=O)N2CCN(C3CCCCC3)CC2)cc2sccc21)c1ccccc1` as the compound, how does the Potency read?
Answer: inactive

Question: Which Potency does the source give for `Oc1cccc(NC(=S)N=Nc2c(O)[nH]c3ccccc23)c1` here?
Answer: inconclusive [inhibitor, single point]

Question: For `Cc1cc(C(=O)NC(C)C2CCCO2)c(C)o1` (stereo not given), which Potency is on record?
Answer: inconclusive [inhibitor, partial curve, poor fit]

Question: Which Potency does the source give for `CC(C)Sc1nc2c([nH]1)c(=N)ncn2Cc1ccccc1` here?
Answer: inconclusive [inhibitor, single point]

Question: `COc1ccc([C@@H]2C[C@H](c3ccccc3)Oc3cc(C)cc(C)c32)cc1` was tested. Which Potency did it give?
Answer: inactive

Question: With `COC(=O)c1ccccc1NC(=O)CCCn1nc([N+](=O)[O-])c(Br)c1C` as the compound, how does the Potency read?
Answer: inconclusive [inhibitor, full curve, poor fit]

Question: For `c1ccc(N2CCN(c3nc4cc5c(cc4s3)OCO5)CC2)cc1`, which Potency is on record?
Answer: inactive

Question: For `NC(=O)c1ccsc1NC(=O)CSc1nncs1`, which Potency is on record?
Answer: inactive

Question: For `Cc1nc2ccc(Cl)cc2nc(C)/c1=N\O`, which Potency is on record?
Answer: inactive

Question: How did the Potency turn out when `CCOc1ccc2[nH]c(=S)sc2c1` was run?
Answer: inconclusive [inhibitor, partial curve]

Question: With `CCOC(=O)c1c2c(n(-c3ccc(OC)cc3)c1C)C(=O)C(=O)c1ccccc1-2` as the compound, how does the Potency read?
Answer: active: 56.2 µM

Question: How did the Potency turn out when `Cn1c(=O)[nH]c(=O)c2c1nc(OC(=O)c1ccccc1)n2CC(O)COc1ccc(F)cc1` (stereo not given) was run?
Answer: inactive

Question: For `O=S(=O)(Nc1ccc(C(O)(C(F)(F)F)C(F)(F)F)cc1)c1cccc2cccnc12`, which Potency is on record?
Answer: inconclusive [inhibitor, full curve, poor fit]

Question: How did the Potency turn out when `Cc1ccccc1NC1=C/C(=N\S(=O)(=O)c2cccs2)c2ccccc2C1=O` was run?
Answer: inactive

Question: `COc1ccc(CNC(=O)COC(=O)c2cccn2C)cc1` was tested. Which Potency did it give?
Answer: inactive

Question: Which Potency does the source give for `O=C(Nc1cccc(S(=O)(=O)C(F)F)c1)c1ccc(S(=O)(=O)N2CCOCC2)cc1` here?
Answer: inconclusive [inhibitor, single point]

Question: How did the Potency turn out when `O=C(Nc1cc(Br)ccc1O)c1cc(-c2ccc3c(c2)OCO3)on1` was run?
Answer: inconclusive [inhibitor, full curve, poor fit]

Question: With `CC(Oc1ccc(Cl)cc1)C(=O)Nc1sccc1C(N)=O` (stereo not given) as the compound, how does the Potency read?
Answer: inconclusive [inhibitor, single point]

Question: For `COc1ccc(C(C(=O)NC2CCCCC2)N(C(=O)c2snc(C(N)=O)c2N)c2ccccc2OC)cc1` (stereo not given), which Potency is on record?
Answer: inconclusive [inhibitor, single point]

Question: How did the Potency turn out when `Cc1ccc(Cn2c(-c3nonc3N)nc3ccccc32)cc1` was run?
Answer: inconclusive [inhibitor, single point]

Question: For `O=C(Nc1ccc2nc(-c3ccco3)c(-c3ccco3)nc2c1)NC1CC1`, which Potency is on record?
Answer: active: 50.1 µM

Question: For `CC(=O)Nc1cccc(-c2csc(Nc3ccc(C)cn3)n2)c1`, which Potency is on record?
Answer: inconclusive [inhibitor, partial curve, poor fit]

Question: With `CN(C)c1ccc(/C=C2\C(=N)N3N=C(CC(=O)N4CCCC4)SC3=NC2=O)cc1Br` as the compound, how does the Potency read?
Answer: inactive

Question: For `O=C(N/C(=C/c1ccc(Br)cc1)C(=O)N1CCCCC1)c1ccccc1F`, which Potency is on record?
Answer: inconclusive [inhibitor, single point]
